In the RNAGym collection of RNA variant scans (doi:10.7554/elife.90254):
The source gives no read counts; variants with many changes may rest on few reads.

B1: LINE1-mini (parent)
chain: GGCAGAGCUCAACACAGCGUGGCAAAGUGGCUGUGGCUAGACUGCC

Variants of: B1
Test: self-cleavage, relative activity (ratio to wild type); higher = more cleavage; in vitro, sequencing; the parent is a self-cleaving ribozyme

| Variant | self-cleavage |
| --- | --- |
| A14U G22C G27C G30C G35U | 0.12 |
| C15A C23A G35U | 0.03 |
| C8A U34C C45A C46U | 0.09 |
| G5U C8A A11U | 0.03 |
| G2C C10A G19A U32G G35U | 0.01 |
| C13U C15U A16G G21U U32A | 0.06 |
| C18G G19A G40U | 0.06 |
| G30U A39U U43C | 0.05 |
| G7U A14U A16G G21C C23U U28C C45U | 0.08 |
| G1C C31G G33U | 0.02 |
| G2C G5C U9G C15A G27A | 0.02 |
| C18U U28G U32C U34A G36A | 0.05 |
| G17C U20A U28G C42A | 0.03 |
| C18A U32A U34A C42A | 0.12 |
| G2A G36C G44U | 0.19 |
| C18A A26C U38A A39C C45U | 0.57 |
| C10A G19U C23U A24C | 0 |
| C10G G21A C23A A26C G27A U32A U34A G40A C45A | 0.01 |
| C10G U20A G22A G35A C37U | 0.01 |
| C8G C18U G29U U43G | 0.03 |
| C13U A16G C18A G27U U34C | 0.01 |

| Variant | self-cleavage |
| --- | --- |
| A4G A11U C13A A16C | 0.02 |
| G2U C23A G36U | 0.01 |
| C15A U34A C45U | 0.21 |
| G30U C31A U43G C46G | 0.28 |
| A4C C13U G29C G35A C45A | 0.35 |
| A4U G19C C46U | 0.04 |
| G19U C37A G44A | 0.02 |
| G2U G33C C42A | 0.02 |
| C23G C45G C46A | 0.06 |
| G1C C15A A24U | 0.02 |
| A24C G27A C31U U32A | 0.04 |
| A6U A26C G36A C46A | 0.05 |
| G5A A24U G33U | 0.06 |
| C10G G17A C18A U32C | 0.06 |
| C37G A39U C42U C46A | 0.03 |
| A16U C23U A24G C42U | 0.02 |
| A6G G19A G22C C23G C37U A39U | 0.02 |
| A4U G35U C45A | 0.06 |
| A4G A16C G22C G29C G33C C37A | 0.1 |
| G5A C8G G19A | 0 |
| G7C U9A C15U | 0.04 |

| Variant | self-cleavage |
| --- | --- |
| A12G C15U U32A | 0.15 |
| G1C C15G C31U G40U | 0 |
| A4U A14U A25U | 0.17 |
| C13U G21U A24U | 0.1 |
| C23A A26U A39U | 0.39 |
| C3G C13A A25C C37G A39U | 0.11 |
| G1C A6U A12C A26C G36U | 0 |
| G21C U38A A41C | 0.02 |
| A4G G7U G19U | 0.12 |
| A4U A12U G17C G40C | 0.08 |
| C8U A11G C42A | 0.01 |
| A12C G21U G22A C42G | 0.01 |
| C15G U20G C45U | 0.03 |
| A6G C31A A39C | 0.03 |
| G5U G36U C46U | 0.02 |
| G2A G7C C15U G27A | 0.39 |
| C23A A26C C46G | 0.95 |
| A11G A14C G17C | 0.04 |
| A4U G7U A12C A14G C15A G33U U43C | 0.07 |
| C10U G19A C23U A24C A41G | 0.09 |
| A4G C8A C13U C15G U32C | 0.03 |

| Variant | self-cleavage |
| --- | --- |
| A14C G21C A24C | 0.01 |
| G5U G7U C15A A26C G27A U32G | 0.26 |
| U20A U32A U38A | 0.06 |
| C3G A4U U20A G29C C31G A41C | 0.01 |
| G19U A24U U28A | 0.53 |
| G5C A14G C46A | 0 |
| A12C G35U G40U C45A | 0.06 |
| G29U G35U A39U | 0.03 |
| G1U U28G G40C A41U G44A C46U | 0.03 |
| A14C U38C C46G | 0.04 |
| U9A C13G G30U | 0.04 |
| G1U A12U A16U G40A U43G | 0.06 |
| G5C A11U A26U G29U G30C C46A | 0.01 |
| C3A A24G U28C A39G G40A | 0.02 |
| A4G U9C G22C C37U | 0.47 |
| C13A A14C C23G G44U | 0.01 |
| C3G A14U A24C | 0.34 |
| C13G A14G G33C | 0.04 |
| A6U G7A G36A | 0.21 |
| G1C A6U G7A C15U G44U C45U | 0.01 |
| C18A G19U G27U C31G C45A | 0.03 |
